Measurements published in PubChem BioAssay AID686979 (National Center for Advancing Translational Sciences (NCATS), 2013).
About 50,000 (12%) of roughly 420,000 compounds were called active. This list was built around the results that the source calls inconclusive (neither active nor inactive); the mix of calls is not that of the screen. Calls follow the shape of the dose curve; as a rule, active = well fitted inhibition curve with a large enough effect; inconclusive = small, poorly fitted or top-dose-only effect; inactive = flat fitted curve, though single readings scatter. Potencies of inconclusive entries are left out as doubtful fits.

Experiment: qHTS for Inhibitors of human tyrosyl-DNA phosphodiesterase 1 (TDP1): qHTS in cells in presence of CPT; also: nearly all actives have a fitted effect of over 55% in size
Settings: chicken DT40 Tdp1-/-;hTDP1 cells + 20 nM CPT, ATP luminescence, 48 h; activity change, negative = growth inhibition: at 46.2 µM (top of the series) unless noted
Procedure, shortened: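 Chicken DT40 Tdp1-/- cells complemented with human TDP1, 400 cells/well, exposed to compounds plus 20 nM camptothecin for at least 48 h at 37 C; viability read as ATP content by CellTiter-Glo luminescence.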
% is scaled to controls: 0 for no effect and ±100 for the full control effect; potency is read from the fitted curve at half-maximal effect; tags tell the direction and shape of the fitted curve.

SMILES	activity change, negative = growth inhibition	Potency
COCCN(C)C(=O)c1cnn(-c2ncc3c(n2)-c2ccccc2CCC3)c1C1CC1	inactive: -6.31%	–
CCOC(=O)Cn1c(=NC(=O)C2COc3ccccc3O2)sc2cc(S(N)(=O)=O)ccc21 (configuration not stated)	–	inconclusive [inhibitor, single point]
OC(c1ccc(-c2ccccc2)cc1)c1ncc(-c2ccc(C(F)(F)F)cc2)[nH]1 (configuration not stated)	–	inconclusive [inhibitor, single point]
O=C(COC(=O)c1n[nH]c2ccccc12)NC(=O)NC1CCCCC1	–	inconclusive [inhibitor, single point]
Cn1c(N2CCN(C(=O)Nc3ccc(C(F)(F)F)cc3)CC2)nc2ccccc21	–	active: 18.4 µM
COc1cc(/C=C2\SC(=S)N(CCC(=O)Nc3cccc(O)c3)C2=O)cc(OC)c1OC	–	inconclusive [inhibitor, single point]
COc1cc(/C=C2/CCC/C(=C\c3cc(O)c(OC)c(Cl)c3)C2=O)cc(Cl)c1O	–	active: 10.3 µM
Cc1ccc2nc(-c3ccc(NS(=O)(=O)c4ccccc4)cc3)sc2c1	–	inconclusive [inhibitor, single point]
CC(NC(=O)Cn1ccsc1=N)C12CC3CC(CC(C3)C1)C2 (configuration not stated)	–	active: 16.4 µM
CCCCOC(=O)C1=C(C)NC(=O)NC1c1cccc([N+](=O)[O-])c1 (configuration not stated)	–	inconclusive [inhibitor, single point]
COc1ccc(/C=C2\SC(=S)N(CCC(=O)N(CCO)Cc3ccccc3)C2=O)cc1OC	–	inconclusive [inhibitor, single point]
COc1ccc(C(=O)NC(=S)N2CCN(c3ccccc3OC)CC2)cc1	–	inconclusive [inhibitor, single point]
O=c1[nH]c(NCCCO)nc2c1C1(CCCC1)Cc1ccccc1-2	–	inconclusive [inhibitor, partial curve, poor fit]
COc1cccc(C2=Nn3c(nnc3-c3ccccc3O)SC2)c1	–	inconclusive [inhibitor, partial curve, poor fit]
Cc1ccc(NS(=O)(=O)c2coc(C(N)=O)c2)cc1F	inactive: -0.718%	–
Cc1nn2c(C)c(C(=O)NCc3ccco3)cnc2c1-c1ccccc1	–	inconclusive [inhibitor, partial curve, poor fit]
CCC(C)[C@H]1CN=C(N)N1CCc1cccc(F)c1 (some centres not stated)	–	active: 18.4 µM
CCOc1cc(C(=O)Nc2ccc(NC(C)=O)cc2)ccc1OCC(=O)N1CCCCC1	inactive: -5.79%	–
CC(C)(C)c1ccc(OCC(=O)Nc2cccc(S(=O)(=O)NC3=NCCCCC3)c2)cc1	–	inconclusive [inhibitor, single point]
CSCc1cc(C(=O)NC2CC2)c(N)s1	–	inconclusive [inhibitor, single point]
Cc1cccc(NC(=O)CNC(=O)COC(=O)c2ccco2)c1C	inactive: -3.31%	–
CCN(CC)c1nc2ccccc2nc1C(=O)Nc1cc(OC)c(OC)c(OC)c1	–	active: 16.4 µM
COc1cccc(CN(C)C(=O)c2cc(S(=O)(=O)N3CCCC3)ccc2C)c1OC	–	inconclusive [inhibitor, single point]
Cc1ccc(-c2cc(C(=O)Nc3cccnc3)c3ccccc3n2)s1	–	inconclusive [inhibitor, single point]

SMILES	activity change, negative = growth inhibition	Potency
CCOC(=O)c1sc(N)nc1C(C)(C)C	–	inconclusive [inhibitor, single point]
Cc1cc(-c2ccc(S(=O)(=O)NCc3ccc(Cl)cc3)cc2)on1	–	inconclusive [inhibitor, single point]
Cc1cccc2sc(N(CCCN(C)C)C(=O)c3ccc4ncsc4c3)nc12	–	inconclusive [inhibitor, single point]
COc1ccc(NC(=O)CSc2nc(SC)ns2)cc1	inconclusive: -36.1% [inhibitor]	–
COc1ccc(C(=O)OCC(=O)N(Cc2ccccc2)Cc2ccccc2)c(O)c1	–	inconclusive [inhibitor, partial curve]
CCOC1=C2[C@H](c3ccccc3F)N(S(=O)(=O)c3ccc(C)cc3)C[C@H]2n2c(=O)n(-c3ccccc3)c(=O)n2C1	inactive: -15.8%	–
CC(=O)N1c2ccccc2S(=O)(=O)c2c1ccc1ccccc21	inactive: -0.177%	–
O=C1CC(=O)N(CCc2ccc(F)cc2)C(=O)N1	inactive: -7.45%	–
CCCCN(C(C)=O)c1c(CC)nc2ccc(C(=O)NCCOc3ccc(OC)cc3)cn12	–	inconclusive [inhibitor, single point]
COC(=O)c1cnc(N2CCCN(S(=O)(=O)c3ccccc3)CC2)nc1C(F)(F)F	–	inconclusive [inhibitor, single point]
Cc1cccn2c(=O)c3cc(S(=O)(=O)c4ccc(Br)cc4)c(=N)n(C4CCCC4)c3nc12	–	inconclusive [inhibitor, full curve]
C[C@H]1CN([C@@H](C)CO)C(=O)CCCn2nncc2CO[C@@H]1CN(C)Cc1ccc2c(c1)OCCO2	inactive: -2.44%	–
CCCCCCCCN1[C@@H](CC(=O)OCC)c2cc(C(F)(F)F)ccc2S1(=O)=O	–	inconclusive [inhibitor, single point]
COc1ccc(C2C(C(=O)Nc3cccnc3)=C(C)Nc3nc(-c4ccccc4)nn32)cc1OC (configuration not stated)	inactive: -1.84%	–
COc1ccc(OCC(=O)NCC(c2ccc(OC)cc2)N2CCCCC2)cc1 (configuration not stated)	–	inactive
COc1ccc(-c2c3c(cc(C)[n+]2[O-])oc2ccc(OC)cc23)cc1	–	active: 25.9 µM
CC[C@]12c3[nH]c4ccc(OC)cc4c3CCN1C(=O)C(CC(=O)NCC13CC4CC(CC(C4)C1)C3)C[C@@H]2C(=O)N1CCN(C(=O)C2CC2)CC1 (some centres not stated)	–	inconclusive [inhibitor, single point]
COc1cc(NC(=O)c2ccccn2)cc(OC)c1OC	–	active: 16.4 µM
COc1cccc(/C=C/C(=O)NNC(=O)c2ccncc2)c1OC	inactive: 1.82%	–
CCOc1nc2cnccc2n(CC(=O)Nc2ccc(C)c(C)c2)c1=O	inactive: -21.8%	–
COc1cccc(-c2nn(-c3ccccc3)cc2/C=C(/NC(=O)c2ccccc2)C(=O)O)c1	inactive: -24.9%	–
COc1ccc(S(=O)(=O)N2CCOC2CNC(=O)C(=O)NCc2ccccc2Cl)cc1 (configuration not stated)	–	inconclusive [inhibitor, partial curve]
O=C(NCCS(=O)(=O)N1CCN(c2ccccc2F)CC1)c1ccco1	–	inconclusive [inhibitor, single point]
COc1ccccc1NC(=O)C1=C(C)Nc2nc(SCc3ccccc3Cl)nn2C1c1ccccn1 (configuration not stated)	–	inconclusive [inhibitor, full curve]

SMILES	activity change, negative = growth inhibition	Potency
COc1cccc(/C=N/Nc2nc(N3CCCC3)nc(N3CCCC3)n2)c1O	–	inconclusive [inhibitor, single point]
Cc1ccc(C(=O)N2CCSCC2)cc1	inactive: -12%	–
C[C@@H]1C(=O)NC2=Nc3cccc(Cl)c3CN21	inactive: -27.3%	–
O=C(/C=C/c1cccs1)c1cc(Cl)ccc1O	–	active: 16.4 µM
O=c1c2ccccc2n2c(-c3ccc(Cl)cc3)nnc2n1CCc1ccccc1	–	inconclusive [inhibitor, single point]
Cc1c(NC(=O)COC(=O)c2ccc(F)c(S(=O)(=O)N3CCOCC3)c2)c(=O)n(-c2ccccc2)n1C	inactive: -7.7%	–
OCC1C2c3ccccc3C(c3ccccc32)C1CO (configuration not stated)	inactive: -1.26%	–
Cc1cc(/C=N/NC(=O)c2cccc(F)c2)c(C)n1-c1ccccc1	–	inconclusive [inhibitor, single point]
CN(Cc1cn(Cc2ccc(C(F)(F)F)cc2)nn1)C1CN(Cc2cn(Cc3ccc(C(F)(F)F)cc3)nn2)S(=O)(=O)C1 (configuration not stated)	–	active: 6.51 µM
CC(C)c1ccc(NC(=O)C(C)N(c2ccccc2)S(C)(=O)=O)cc1 (configuration not stated)	–	inconclusive [inhibitor, single point]
O=C(CSc1nc2nc(-c3cccs3)cc(C(F)(F)F)c2c(=O)[nH]1)C(F)(F)F	–	active: 13 µM
Cc1cccc(OCc2nnc(SCC(=O)c3c(N)n(C4CC4)c(=O)[nH]c3=O)o2)c1	inactive: 2.22%	–
Cc1cc2c(c(Sc3ccccc3)n1)C(=O)OC2	inactive: -17.9%	–
CCCCOc1ccc(N=Nc2ccc(N)nc2N)cn1	–	inconclusive [inhibitor, single point]
Cc1ccccc1CSc1nnc(-c2ccncc2)n1C	inactive: 11.8%	–
COc1ccc(NC(=O)Cc2coc3cc(C)ccc23)cn1	inactive: 1.37%	–
COC(=O)[C@@]1(Cc2ccc(F)cc2)[C@H]2c3cc(C(=O)N4CCCC4)n(Cc4ccc(C(F)(F)F)nc4)c3C[C@H]2CN1C(=O)c1ccccc1	–	inconclusive [inhibitor, single point]
O=C(O)CC1c2ccccc2C=Cc2ccccc21	inactive: -3.66%	–
COc1cccc(-c2ccc(C3=CC(=O)CC(C)(C)C3=O)cc2)c1OC	–	inconclusive [inhibitor, single point]
Cc1nnc2c3ccccc3c(-c3ccccc3)nn12	–	inconclusive [inhibitor, single point]
COc1cccc(-c2nc(N3CCC(C)CC3)c3ccccc3n2)c1O	–	active: 18.4 µM
COc1ccc(-c2nc(CSc3nnc(C)n4c3cc3occc34)c(C)o2)cc1OC	–	active: 10.3 µM
COCCCNc1nc(NCc2cccc(Cl)c2)c2cnn(C)c2n1	–	inconclusive [inhibitor, single point]
CCc1ccc(-n2nc(C)c3c(C)cc(=O)n(CC(=O)Nc4ccc(C(C)=O)cc4)c32)cc1	–	inconclusive [inhibitor, single point]
